The results in this text go back to patent US9931415B2, “Pyrrolobenzodiazepine-antibody conjugates” (ADC THERAPEUTICS S.A., priority 2012, dated 2018).

One data set relates to Daudi cells. The data set can be described thus: In vitro cytotoxicity of ADCs, MTS assay, Daudi (CD25-negative control). The following applies: 4 days incubation. In kind it is cell-based, human. Here is the method: SU-DHL-1 and Karpas299 cells were from the Leibniz Institute DSMZ-German Collection of Microorganisms and Cell Cultures. Daudi cells were from the American Type Culture Collection. Cell culture medium was RPMI 1640 supplemented with L-Glutamine and 10% FBS. Cells were grown at 37° C., 5% CO2, in a humidified incubator.
The concentration and viability of cultures of suspended cells (at up to 1×10^6/m1) were determined by mixing 1:1 with Trypan blue and counting clear (live)/blue (dead) cells with a haemocytometer. The cell suspension was diluted to the required seeding density (generally 10^5/ml) and dispensed into 96-well flat bottomed plates. For Alamar blue assay, 100 μl/well was dispensed in black-well plates. For MTS assay, 50 μl/well was dispensed in clear-well plates. A stock solution (1 ml) of ADC (20 μg/ml) was made by dilution of filter-sterile ADC into cell culture medium. A set of 8×10-fold dilutions of stock ADC were made in a 24 well plate by serial transfer of 100 μl onto 900 μl of cell culture medium. Each ADC dilution (100 μl/well for Alamar blue, 50 μl/well for MTS) was dispensed into 4 replicate wells of the 96-well plate, containing cell suspension. Control wells received the same volume of culture medium only.
Absorbance was measured at 490 nm.
On the technique in general: Tetrazolium assays rely on reduction of a dye to a coloured formazan, in cell work by metabolically active cells.

The test system of the next data set is Karpas299 xenograft. The data set can be described thus: In vivo anti-tumour activity of ADCs in Karpas299 xenograft model. On the set-up: species or system female NCr nu/nu mice. The method, then:
The antibody was conjugated to A and E drug-linkers as described above and tested in the Karpas299 xenograft model. As non-CD25-binding controls, the anti-HIV gp120 antibody, B12, linked to the same warheads was used. At the same time, to investigate any potential anti-tumor activity observed with the non-CD25-binding ADC controls, HuMax-TAC-E and B12-E (both described above) were tested in vivo in combination with 30 fold excess of human IgG.
Procedures: • Set up CR female NCr nu/nu mice with I×KARPAS-299-SPN tumor cells in 0% Matrigel sc in flank. • Cell Injection Volume is 0.1 mL/mouse. • Age at Start Date: 8 to 12 weeks. • Perform a pair match when tumors reach an average size of 100-150 mm^3 and begin treatment. • Body Weight: qd×5 then bi-wk to end • Caliper Measurement: bi-wk to end • Report any adverse reactions or death immediately. • Any individual animal with a single observation of >30% body weight loss or three consecutive measurements of >25% body weight loss will be euthanized. • Any group with two measurements of mean body weight loss of >20% or >10% mortality will stop dosing. The group is not euthanized and recovery is allowed. Within a group with >20% weight loss, individuals hitting the individual body weight loss endpoint will be euthanized. […] Animals are to be monitored individually. […]

B1: HuMax-TAC-E (conjugate)
VH: QVQLVQSGAEVKKPGSSVKVSCKASGGTFSRYIINWVRQAPGQGLEWMGRIIPILGVENYAQKFQGRVTITADKSTSTAYMELSSLRSEDTAVYYCARKDWFDYWGQGTLVTVSSASTKGPSVFPLA
VL: EIVLTQSPGTLSLSPGERATLS[omitted - about 80 residues]TFGGGTKVEIKRTVAAPSVFIFP
The term EC50 denotes the concentration that produces a half-maximal response. Turning to B1, the concentration for a half-maximal effect (EC50) in the data set on Daudi cells came out at 0.2737 µg/mL. Moreover, the “relative activity in combination with 30 mg/kg of IgG” value in the data set with Karpas299 xenograft (single IV dose 1 mg/kg ADC + 30 mg/kg human IgG, whole duration of study) is on record as “relative activity was not affected”. For the same molecule, the anti-tumor activity result with Karpas299 xenograft (single IV dose 0.6 and 1 mg/kg (binding ADCs), 1 mg/kg (non-binding ADCs), FIG. 4) is given as “most potent anti-tumor activity compared to HuMax-TAC-A”.
